According to patent publication US20230212319A1, “NOVEL ANTIGEN BINDING DOMAINS AND SYNTHETIC ANTIGEN RECEPTORS INCORPORATING THE SAME” (University of Southern California, priority 2020, published 2023):

B1: 4090 (protein)
chain: MALPVTALLLPLALLLHAARPDIQMTQSPSSLSASVGDRVTITCKASDHINNWLAWYQQKPGQAPKLLIYGATTLETGVPSRFSGSGSGTDYTLTISSLQPEDFATYYCQQSWNTPWTFGQGTKLEIKRLEDLKNVFPPEVAVFEPSEAEISHTQKATLVCLATGFYPDHVELSWWVNGKEVHSGVCTDPQPLKEQPALNDSRYCLSSRLRVSATFWQNPRNHFRCQVQFYGLSENDEWTQDRAKPVTQIVSAEAWGRADCGFTSESYQQGVLSATILYEILLGKATLYAVLVSALVLMAMVKRKDSRGRAKRSGSGATNFSLLKQAGDVEENPGPTSMDWIWRILFLVGAATGAHSGPQVQLQESGGGLAQAGGSLRLSCAASGRTFSMGWFRQAPGKEREFVAAITYSGGSPYYASSVRGRFTISRDNAKNTVYLQMNSLKPEDTAVYYCAANPTYGSDWNAENWGQGTQVTVSSGSGGGGSGGGGSGGGGSFEQVQLQQPGAELVKPGASVKMSCKASGYAFSSYWINWMKQKPGQGLEWIGQIYPGDGDTNYNGKFKGRATLTADTSSSTAYMQLSSLTSEDSAVYFCARSITTVVGCAMDYWGQGTSVTVSSTRIQNPDPAVYQLRDSKSSDKSVCLFTDFDSQTNVSQSKDSDVYITDKCVLDMRSMDFKSNSAVAWSNKSDFACANAFNNSIIPEDTFFPSPESSCDVKLVEKSFETDTNLNFQNLSVIGFRILLLKVAGFNLLMTLRLWSSRAKRSGSGVKQTLNFDLLKLAGDVESNPGPSRGHMTEYKPTVRLATRDDVPRAVRTLAAAFADYPATRHTVDPDRHIERVTELQELFLTRVGLDIGKVWVADDGAAVAVWTTPESVEAGAVFAEIGPRMAELSGSRLAAQQQMEGLLAPHRPKEPAWFLATVGVSPDHQGKGLGSAVVLPGVEAAERAGVPAFLETSAPRNLPFYERLGFTVTADVEVPEGPRTWCMTRKPGA
modifications: Synthetic Polynucloetide
B2: 4088 (protein)
chain: MALPVTALLLPLALLLHAARPDIQMTQSPSSLSASVGDRVTITCKASDHINNWLAWYQQKPGQAPKLLIYGATTLETGVPSRFSGSGSGTDYTLTISSLQPEDFATYYCQQSWNTPWTFGQGTKLEIKRLEIQNPDPAVYQLRDSKSSDKSVCLFTDFDSQTNVSQSKDSDVYITDKCVLDMRSMDFKSNSAVAWSNKSDFACANAFNNSIIPEDTFFPSSDVPCDVKLVEKSFETDTNLNFQNLSVIGFRILLLKVAGFNLLMTLRLWSSRAKRSGSGVKQTLNFDLLKLAGDVESNPGPTSMDWIWRILFLVGAATGAHSGPQVQLQESGGGLAQAGGSLRLSCAASGRTFSMGWFRQAPGKEREFVAAITYSGGSPYYASSVRGRFTISRDNAKNTVYLQMNSLKPEDTAVYYCAANPTYGSDWNAENWGQGTQVTVSSGSGGGGSGGGGSGGGGSFEQVQLQQPGAELVKPGASVKMSCKASGYAFSSYWINWMKQKPGQGLEWIGQIYPGDGDTNYNGKFKGRATLTADTSSSTAYMQLSSLTSEDSAVYFCARSITTVVGCAMDYWGQGTSVTVSSTREDLKNVFPPEVAVFEPSKAEIAHTQKATLVCLATGFYPDHVELSWWVNGKEVHSGVCTDPQPLKEQPALNDSRYCLSSRLRVSATFWQNPRNHFRCQVQFYGLSENDEWTQDRAKPVTQIVSAEAWGRADCGITSASYHQGVLSATILYEILLGKATLYAVLVSALVLMAMVKRKDSRGRAKRSGSGATNFSLLKQAGDVEENPGPSRGHMTEYKPTVRLATRDDVPRAVRTLAAAFADYPATRHTVDPDRHIERVTELQELFLTRVGLDIGKVWVADDGAAVAVWTTPESVEAGAVFAEIGPRMAELSGSRLAAQQQMEGLLAPHRPKEPAWFLATVGVSPDHQGKGLGSAVVLPGVEAAERAGVPAFLETSAPRNLPFYERLGFTVTADVEVPEGPRTWCMTRKPGA
modifications: Synthetic Polynucloetide
B3: 4089 (protein)
chain: B1 chain with E148K, S152A, F263I, E266A, Q269H, P709S, E710D, S711V, S712P
modifications: Synthetic Polynucloetide
B4: 1330 (protein)
chain: MALPVTALLLPLALLLHAARPEVQLVESGGGLVQPGGSLRLSCTFSGGTFSSYTMGWFRQAPGKEREFVAEVRWGGVTTYSNSLKDRFSISEDSVKNAVYLQMNSLKPEDTAVYYCAAVRQMYMTVVPDYWGQGTLVTVSSSGGGGSDIQMTQSPSSLSASVGDRVTITCKASDHINNWLAWYQQKPGKAPKLLIYGATTLETGVPSRFSGSGSGTDFTLTISSLQPEDFATYYCQQSWNTPWTFGQGTKVEIKRLEDLKNVFPPEVAVFEPSEAEISHTQKATLVCLATGFYPDHVELSWWVNGKEVHSGVCTDPQPLKEQPALNDSRYCLSSRLRVSATFWQNPRNHFRCQVQFYGLSENDEWTQDRAKPVTQIVSAEAWGRADCGFTSESYQQGVLSATILYEILLGKATLYAVLVSALVLMAMVKRKDSRGRAKRSGSGATNFSLLKQAGDVEENPGPTSMDWIWRILFLVGAATGAHSFEEVQLVESGGGLVQPGGSLRLSCAASGYAFSSYWVNWVRQAPGKGLEWVAQIYPGDGDTNYNGKFKGRFTISRDNSKNTLYLQMNSLRAEDTAVYYCARSITTVVGCAMDYWGQGTLVTVSSTRIQNPDPAVYQLRDSKSSDKSVCLFTDFDSQTNVSQSKDSDVYITDKCVLDMRSMDFKSNSAVAWSNKSDFACANAFNNSIIPEDTFFPSPESSCDVKLVEKSFETDTNLNFQNLSVIGFRILLLKVAGFNLLMTLRLWSSRAKRSGSGVKQTLNFDLLKLAGDVESNPGPSRGHMTEYKPTVRLATRDDVPRAVRTLAAAFADYPATRHTVDPDRHIERVTELQELFLTRVGLDIGKVWVADDGAAVAVWTTPESVEAGAVFAEIGPRMAELSGSRLAAQQQMEGLLAPHRPKEPAWFLATVGVSPDHQGKGLGSAVVLPGVEAAERAGVPAFLETSAPRNLPFYERLGFTVTADVEVPEGPRTWCMTRKPGA
modifications: Synthetic Polynucloetide

Columns and labels:
Format in all cases: cell-based
[1] = tested on: RAJI CD19 KO A7 (CD19-/CD20+) cells
DAUDI (CD20+) cells = tested on: DAUDI (CD20+) cells
RS411 cells = tested on: RS411 cells

Row | Molecule | GFP induction (JNG-GFP induction assay), RAJI CD19 KO A7 [1] | GFP induction (JNG-GFP induction assay), DAUDI (DAUDI (CD20+) cells) | GFP induction (JNG-GFP induction assay), RS;411 (RS411 cells)
1 | B1 | positive |  | 
2 | B2 | positive |  | 
3 | B3 | positive |  | 
4 | B4 | able to induce T cell signaling and GFP expression | able to induce T cell signaling and GFP expression | able to induce T cell signaling and GFP expression

Substitutions are numbered along the chain they refer to.
